US12258540B2, “Environmentally compatible detergents for inactivation of lipid-enveloped viruses” (TAKEDA PHARMACEUTICAL COMPANY LIMITED, priority 2017, dated 2025)
Like-named read-outs stand apart in the source and are kept apart here.

Assays:
[1] = test system: bovine viral diarrhea virus (BVDV)
[2] = test system: bovine viral diarrhea virus (BVDV); conditions: single detergent 0.1%±0.01%, IVIG-containing liquid, 17° C.±1° C., within 10 minutes

Row | Substance | virus reduction factor (RF), BVDV [1] | virus reduction factor (RF), BVDV [2] | virus reduction factor (RF), BVDV ([1]; single detergent 0.1%±0.01%, pdFVIII-containing liquid, 23° C.±1° C., within 5 minutes)
1 | 4-(1,1,3,3-tetramethylbutyl)phenol, ethoxylated [Triton X-100, reference compound] | around 5 | – | –
2 | 4-tert-octylbenzyl alcohol polyethoxylate | – | around 5 | around 5
